{
  "source": "patent US12617790B2",
  "about": "“Mitragynine analogs and uses thereof” (Memorial Sloan-Kettering Cancer Center, priority 2015, dated 2026)",
  "tested_on": "C57/BL6 mice",
  "conditions": "C57/BL6, sc",
  "data": [
    {"smiles": "CC[C@@H]1CN2CC[C@]3(Nc4cccc(OC)c4C3=O)C2C[C@@H]1/C(=C\\OC)C(=O)OC", "note": "(stereo partly drawn) [VM1502, (E)-methyl 2-((1'S,6'S,7'S)-6′-ethyl-4-methoxy-3-oxo-3′,5′,6′,7′,8′,8a′-hexahydro-2′H-spiro[indoline-2,1′-indolizine]-7′-yl)-3-methoxyacrylate]", "values": [
      {"measurement": "analgesia in E1-E11 double MOR-1 knockout mice", "result": "eliminated in MOR-1 knockout mice"}
    ]}
  ]
}
